Reference: the RNAGym collection of RNA variant scans (doi:10.1093/nar/gkz1192)
Read counts are not given, so values of variants with three or more changes are uncertain.

B1: CPEB3 Ribozyme (parent)
chain: UAACAGGGGGCCACAGCAGAAGCGUUCACGUCGCAGCCCCUGUCAGAUUCUGGUGAAUCUGCGAAUUCUGCUGUAUAUCUC

Variants of: B1
Assay: self-cleavage, relative activity (ratio to wild type); higher = more cleavage; in vitro, sequencing
In short: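 After error-prone PCR and barcoding, CPEB3 ribozyme mutant libraries were transcribed with T7 RNA polymerase at 37°C for 5 hours, then given 15 min with DNase I before an EDTA stop, and they cleaved during both steps. Reverse transcription with template switching preceded Illumina sequencing. Relative activity divides a variant's cleaved/total read fraction by the unmutated ribozyme's. At least 5 reads were required per variant, and three batches were averaged.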
With UAACAGGGGGCCACAGCGGAAGCGUUCACGUCGCAGCCCCUGUCAGAUUCAGGAGAAUCUGCGUAUUCUGCUGUAUACCUC [A18G U51A U54A A64U U78C] the self-cleavage was 0.32.
With UAACAGGGGGCCACAGCGGAAGCGUUCACGUCGCAGCCCCUGUCAGAUUCUGGCGAAUCUGCGACUUCUGCUGUAUAUCUC [A18G U54C A65C] the self-cleavage was 0.07.
Variant UAACAGGGGGCCACAGCGGAAGCGUUCACGUCGCAGCCCCUGUCAGAUCCUGGUGAAUCUGCGAAUUCUGCUGCAUAUCUC [A18G U49C U74C] has a self-cleavage of 0.24.
UAACAGGGGGCCACAGCGGAAGCGUUCACGUCGCAGCCCCUGUCAGAUUCGAAUGAAUCUGCGAAUUCUGCUGUAUAUCUC [A18G U51G G52A G53A] gave a self-cleavage of 0.97.
With UAACAGGGGGCCACAGCGGAAGCGUUCACGUCGCAGCCCCUGUCAGAUUCUGGUGAAUCUGCGAACUCUGCUGUAUACCUC [A18G U66C U78C] the self-cleavage was 0.26.
Variant UAACAGGGGGCCACAGCGGAAGCGUUCACGUCGCAGCCCCUGUCAGAUUCUGGUGAAUCUGCGAAUACAGCUGUAUAUCUC [A18G U67A U69A] has a self-cleavage of 0.22.
UAACAGGGGGCCACAGCGGAAGCGUUCACGUCGCAGCCCCUGUCAGAUUCGGGUGAAACUGCGAAUUCUGCUGUAUAUCUC [A18G U51G U58A] showed a self-cleavage of 0.16.
UAACAGGGGGCCACAGCGGAAGCGUUCACGUCGCAGCCCCUGUCAGAUCCUGGUGAAUCUGCGAAUUCUGCUGUAUAUCCC [A18G U49C U80C] gave a self-cleavage of 0.29.
Variant UAACAGGGGGCCACAGCGGAAGCGUUCACGUCGCAGCCCCUGUCAGAUUCUGGUGAACCUGCGAAUUCUGCUGUUUAUCUC [A18G U58C A75U] has a self-cleavage of 0.36.
With UAACAGGGGGCCACAGCGGAAGCGUUCACGUCGCAGCCCCUGUCAGAUUCCGGUGGAUCUGCGAAUUCUGCUGUGUAUCUC [A18G U51C A56G A75G] the self-cleavage was 0.44.
With UAACAGGGGGCCACAGCGGAAGCGUUCACGUCGCAGCCCCUGUCAGAUUCAGGAGAAUCAGCGAAUUCUGCUGUAUAUCUC [A18G U51A U54A U60A] the self-cleavage was 0.24.
UAACAGGGGGCCACAGCGGAAGCGUUCACGUCGCAGCCCCUGUCAGAUUCCGGUGAAUCUGCGAAUUCUGCCGUAUAUCUC [A18G U51C U72C] showed a self-cleavage of 0.45.
With UAACAGGGGGCCACAGCGGAAGCGUUCACGUCGCAGCCCCUGUCAGAUUCCGGUGAAUCUGCGAAUUCUGCUGUUUAUCUC [A18G U51C A75U] the self-cleavage was 0.8.
UAACAGGGGGCCACAGCGGAAGCGUUCACGUCGCAGCCCCUGUCAGAUUCUGGUGAAUCUGCGAACUCUGCUGUACAUCUC [A18G U66C U76C] showed a self-cleavage of 0.28.
In the case of UAACAGGGGGCCACAGCGGAAGCGUUCACGUCGCAGCCCCUGUCAGAUCCUGGUGAAUGUGCGAGUUCUGCUGCAUACCUC [A18G U49C C59G A65G U74C U78C], the self-cleavage is reported as 0.13.
With UAACAGGGGGCCACAGCGGAAGCGUUCACGUCGCAGCCCCUGUCAGAUUCUGGUGAAUCUGCGAAUCCUGCUGUAUGUCUC [A18G U67C A77G] the self-cleavage was 0.35.
With UAACAGGGGGCCACAGCGGAAGCGUUCACGUCGCAGCCCCUGUCAGAUUCAGGUGAAUCCGCGAAUUCUGCCGUAUAUCUC [A18G U51A U60C U72C] the self-cleavage was 0.41.
For UAACAGGGGGCCACAGCGGAAGCGUUCACGUCGCAGCCCCUGUCAGAUUCUGGUGAAUCGGCGAAUUCUGCUGUAUGUCUC [A18G U60G A77G], the self-cleavage was 0.31.
UAACAGGGGGCCACAGCGGAAGCGUUCACGUCGCAGCCCCUGUCAGAUUCUGGUGAAUCAGCGGAUUCUGCUGUAUAUCUC [A18G U60A A64G] showed a self-cleavage of 0.36.
In the case of UAACAGGGGGCCACAGCGGAAGCGUUCACGUCGCAGCCCCUGUCAGAUUCAGGCGAAUCUGCGAAUUCUGCUGUAUAUCUC [A18G U51A U54C], the self-cleavage is reported as 0.86.
For UAACAGGGGGCCACAGCGGAAGCGUUCACGUCGCAGCCCCUGUCAGAUUCCGGUGAACCUGCGAAUUCUGCCGUAUAUCUC [A18G U51C U58C U72C], the self-cleavage was 0.26.
UAACAGGGGGCCACAGCGGAAGCGUUCACGUCGCAGCCCCUGUCAGAUUCUGGUGAAACUGCGAGUUCUGCAGUAUACCUC [A18G U58A A65G U72A U78C] showed a self-cleavage of 0.11.
UAACAGGGGGCCACAGCGGAAGCGUUCACGUCGCAGCCCCUGUCAGAUUCUGGCGAAUCUGCGAAUUCUGCUGUAUGUCUC [A18G U54C A77G] gave a self-cleavage of 0.74.
UAACAGGGGGCCACAGCGGAAGCGUUCACGUCGCAGCCCCUGUCAGAUUCUGGUGAACGUGCGAAUUCUGCUGUAUAUCAC [A18G U58C C59G U80A] gave a self-cleavage of 0.14.
In the case of UAACAGGGGGCCACAGCGGAAGCGUUCACGUCGCAGCCCCUGUCAGAUUCUGGCGAAUCUGCGAAUACUGCUGUAUAUCUC [A18G U54C U67A], the self-cleavage is reported as 0.2.
Variant UAACAGGGGGCCACAGCGGAAGCGUUCACGUCGCAGCCCCUGUCAGAUUCUGGUGAAACUGCGAAUUCUGCUGUAUAUCCC [A18G U58A U80C] has a self-cleavage of 0.2.
With UAACAGGGGGCCACAGCGGAAGCGUUCACGUCGCAGCCCCUGUCAGAUCCUGGUGAAUCUGCGAAUUCUGCUGUAUAUCUU [A18G U49C C81U] the self-cleavage was 0.19.
For UAACAGGGGGCCACAGCGGAAGCGUUCACGUCGCAGCCCCUGUCAGAUCCGGGUGUAUCUGCGAAUUCUGCUGUAUAUCUC [A18G U49C U51G A56U], the self-cleavage was 0.44.
UAACAGGGGGCCACAGCGGAAGCGUUCACGUCGCAGCCCCUGUCAGAUUCCGGUGAACCUGCGUAUUCUGCUGUAUAUCUC [A18G U51C U58C A64U] gave a self-cleavage of 0.19.
UAACAGGGGGCCACAGCGGAAGCGUUCACGUCGCAGCCCCUGUCAGAUUCUGGUGAAUCCACGAAUUCUGCUGUAUUUCUC [A18G U60C G61A A77U] showed a self-cleavage of 0.22.
UAACAGGGGGCCACAGCGGAAGCGUUCACGUCGCAGCCCCUGUCAGAUUCUGGGGAAUCUGCGAAUUCUGCUGUAUAUCAC [A18G U54G U80A] showed a self-cleavage of 0.86.
In the case of UAACAGGGGGCCACAGCGGAAGCGUUCACGUCGCAGCCCCUGUCAGAUUCCGGUGAAUCUGCGAAUUCCGCUGUAUAUCCC [A18G U51C U69C U80C], the self-cleavage is reported as 1.19.
UAACAGGGGGCCACAGCGGAAGCGUUCACGUCGCAGCCCCUGUCAGAUCCUGGUGAAUCUGCGAAUUCUGCCGUAUAUCUC [A18G U49C U72C] showed a self-cleavage of 0.32.
Variant UAACAGGGGGCCACAGCGGAAGCGUUCACGUCGCAGCCCCUGUCAGAUUCUGGCGAAUCUGCGAAUUCUGCUGUAAAUCUC [A18G U54C U76A] has a self-cleavage of 0.33.
